This is an account of results in publication PMC13083723 (Patterns, 2026).

Screen size: about 5,400 compounds; about 190 (3.5%) showed an effect of 50% or more. The list shows a part of the results.

This assay relates to Vero-E6. Kind of assay: primary screen, phospholipidosis by LipidTOX staining; higher = more effect of the substance. The settings on record: 10 µM. The essentials:
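Drug-induced phospholipidosis detected with HCS LipidTOX Red reagent in Vero-E6 cells. Compounds tested at 10 μM, with amiodarone (10 μM) as positive control and DMSO (0.1 v/v %) as vehicle.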
Consider `O=C(CCCCCCNC(=O)c1cnc(N(c2ccccc2)c2ccccc2)nc1)NO`, for which the result_ITMP is on record as 1.06%.

In the case of `CN(C)CCN(Cc1cccs1)c1ccccn1`, the result_ITMP is recorded as -0.5%.

With `CC(C)N(CCNC(=O)CN1CCCC1=O)C(C)C`, the result_ITMP is on record as -5.97%.

`COc1c(O[C@@H]2O[C@H](CO)[C@@H](O)[C@H](O)[C@H]2O)cc2c(c1OC)-c1ccc(SC)c(=O)cc1[C@@H](NC(C)=O)CC2`: the result_ITMP is on record as -10.8%.

Consider `NC(CO)(CO)CO`, for which the result_ITMP is recorded as -3.2%.

Consider `COc1ccc(C2CNC(=O)NC2)cc1O[C@H]1C[C@@H]2CC[C@H]1C2`, for which the result_ITMP is reported as -5.61%.

Take `C[C@@H](N)[C@H]1CC[C@H](C(=O)Nc2ccncc2)CC1`: the result_ITMP is listed as -1.53%.

On to `O=C(Cn1ccnc1[N+](=O)[O-])NCCO`, for which the result_ITMP is listed as -7.98%.

`O=C(NNC(=O)c1ccc(CNS(=O)(=O)c2ccc(F)c(Cl)c2)cc1)c1ccccc1`: the result_ITMP was found to be 0.07%.

With `C[C@@H]1CN(CCCn2c3ccccc3c3ccccc32)C[C@H](C)N1`, the result_ITMP came out at 99.9%.

`COC(=O)CC1CC(c2ccc(O)cc2)=NO1` (stereo not drawn): the result_ITMP is reported as 0.59%.

Regarding `CNCC(=O)c1ccc(O)c(O)c1`, the result_ITMP is 0.92%.

As for `Oc1cccc(Nc2ncc(F)c(Nc3cccc(O)c3)n2)c1`, the result_ITMP is -1.2%.

Turning to `O=c1cc(-c2ccc(O)cc2)oc2cc(O)cc(O)c12`, the result_ITMP was -0.77%.

For `O=C(NC(=O)c1c(F)cccc1F)Nc1cc(Cl)c(OC(F)(F)C(F)C(F)(F)F)cc1Cl` (stereo not drawn), the result_ITMP worked out at 4.83%.

Consider `CCn1cc(C(=O)[O-])c(=O)c2cc3c(cc21)OCO3`, for which the result_ITMP is reported as -4.34%.

Take `C[C@H](NC(=O)c1sccc1OCc1ccc(Cl)cc1)c1ccccc1`: the result_ITMP is 1.11%.

As for `Cc1ccc(C)c(Oc2ccncc2C(=O)N2CCN(C3CC3)c3ccccc32)c1`, the result_ITMP was -4.61%.

As for `C#C[C@]1(O)CC[C@H]2[C@@H]3CCc4cc(OC)ccc4[C@H]3CC[C@@]21C`, the result_ITMP is listed as -2.71%.

For `COc1ccc(-c2ccc3c(N4CCOCC4)nc(N4C[C@@H](C)O[C@@H](C)C4)nc3n2)cc1CO`, the result_ITMP is 1.47%.

For the compound `CN(C)C(=O)c1ccc(S(=O)(=O)c2ccc(NC(=O)[C@@](C)(O)C(F)(F)F)c(Cl)c2)cc1`, the result_ITMP was found to be 2.45%.

For `CN(C)CCCCSC(=N)N`, the result_ITMP is given as -0.13%.

Regarding `COc1ccc2cccc(CCNC(C)=O)c2c1`, the result_ITMP is -3.76%.

For the compound `COc1cc(C=O)ccc1O`, the result_ITMP was -2.56%.

As for `CNc1ncc2cc(-c3cc(NC(=O)NCCC(C)(C)C)c(F)cc3C)c(C)nc2n1`, the result_ITMP is reported as -7.16%.

As to `Cc1[nH]c(/C=C2\C(=O)Nc3ccccc32)c(C)c1CCC(=O)O`, the result_ITMP is listed as 0.37%.

As for `CC1(C)CC[C@]2(NC(=O)C(C)(F)F)CC[C@]3(C)C(C(=O)C=C4[C@@]5(C)C=C(C#N)C(=O)C(C)(C)[C@@H]5CC[C@]43C)C2C1` (stereo partly drawn), the result_ITMP was -22.1%.

In the case of `COc1cc[nH]c2ncc(C(=O)C(=O)N3CCN(C(=O)c4ccccc4)C[C@H]3C)c1-2`, the result_ITMP is -6.29%.

As for `CN(CCOc1ccc(NS(C)(=O)=O)cc1)CCc1ccc(NS(C)(=O)=O)cc1`, the result_ITMP is recorded as -1.68%.

As to `O=C(NO)C1(CS(=O)(=O)c2ccc(Oc3ccc(Cl)cc3)cc2)CCOCC1`, the result_ITMP is 0.16%.

Turning to `CCN(CC)CCCC(C)Nc1c2ccc(Cl)cc2nc2ccc(OC)cc12` (stereo not drawn), the result_ITMP is 110%.

Regarding `COc1cc(OC)cc(N(CCNC(C)C)c2ccc3ncc(-c4cnn(C)c4)nc3c2)c1`, the result_ITMP is given as 55.2%.

For the compound `Cc1nc(C)c(Cl)c(O)c1Cl`, the result_ITMP is given as 6.4%.

Turning to `CCc1cccc(CC)c1NC(=O)c1nn(C)c2c1CCc1cnc(Nc3ccc(C(=O)NC4CCN(C)CC4)cc3OC(F)(F)F)nc1-2`, the result_ITMP was 7.96%.

Take `Cc1onc(-c2ccccc2Cl)c1C(=O)N[C@@H]1C(=O)N2[C@@H]1SC(C)(C)[C@@H]2C(=O)[O-]`: the result_ITMP was 4.56%.

Turning to `CCCCCCCCCCCCCCCC[N+](C)(C)CCN(Cc1ccc(OC)cc1)c1ncccn1`, the result_ITMP came out at 1.84%.

With `CC(C)(C)NS(=O)(=O)c1cncc(-c2cc(F)c3nc(N)nn3c2)c1`, the result_ITMP was -0.73%.

Consider `C[C@@H]1CC[C@H]2[C@@H](C)C(=O)O[C@@H]3O[C@@]4(C)CC[C@@H]1[C@]32OO4`, for which the result_ITMP is listed as -7.24%.

On to `OC1(c2ccc(Cl)cc2)c2ccccc2C2=NCCN21` (stereo not drawn), for which the result_ITMP was 4.81%.

For `NS(=O)(=O)c1ccc(C(=O)O)cc1`, the result_ITMP came to 6.06%.

For `COc1cc2ncnc(Nc3ccc(Cl)cc3F)c2cc1OC`, the result_ITMP was -0.91%.

For the compound `Oc1ccc(Nc2nc(-c3ccc(Cl)cc3)cs2)cc1`, the result_ITMP is reported as -1.8%.

With `CNC(=O)c1c(C)oc2cc(Oc3ncnc4cc(OC)c(OC)cc34)ccc12`, the result_ITMP is recorded as -2.33%.

`NC(=O)[C@@H]1CC[C@@H]2CN1C(=O)N2OS(=O)(=O)[O-]`: the result_ITMP is recorded as -0.26%.

`N#Cc1ccc2[nH]c(O)c(-c3ccc(CN4CCOCC4)cn3)c2c1`: the result_ITMP is 4.84%.

On to `N[C@@H]1CCCN(c2c(/C=C3\SC(=O)NC3=O)cccc2-c2ccccc2)C1`, for which the result_ITMP was determined as 25.3%.

Turning to `Cc1cccc(CCN2CCC(C(=O)c3ccc(NS(C)(=O)=O)cc3)CC2)n1`, the result_ITMP is recorded as -0.9%.

For the compound `CO[C@H]1C[C@@H]2CC[C@@H](C)[C@@](O)(O2)C(=O)C(=O)N2CCCC[C@H]2C(=O)O[C@H]([C@H](C)C[C@@H]2CC[C@@H](O)[C@H](OC)C2)CC(=O)[C@H](C)/C=C(\C)[C@@H](O)[C@@H](OC)C(=O)[C@H](C)C[C@H](C)/C=C/C=C/C=C/1C`, the result_ITMP was -0.12%.

On to `CCOc1ccccc1C(N)=O`, for which the result_ITMP is reported as 17.2%.

For the compound `CC[C@@]1(C2O[C@@H](C3O[C@@](O)(CO)[C@H](C)C[C@@H]3C)C[C@@H]2C)CC[C@H]([C@]2(C)CCC3(C[C@H](O)[C@@H](C)[C@@H]([C@H](C)[C@@H](OC)[C@H](C)C(=O)[O-])O3)O2)O1` (stereo partly drawn), the result_ITMP is given as -2.43%.

Regarding `C1CCC(NC2CCCCC2)CC1`, the result_ITMP is reported as -9.39%.

For `CCC(=O)NO`, the result_ITMP was -5.29%.

In the case of `Cc1nc(Nc2n[nH]c3c2CN(C(=O)N[C@H](CN(C)C)c2ccccc2)C3(C)C)c2sccc2n1`, the result_ITMP was 1.28%.

With `CN1C(=O)CC(C)(c2ccccc2)C1=O` (stereo not drawn), the result_ITMP came to 7.24%.

For the compound `CCOc1ccn(-c2ccc(F)cc2)c(=O)c1C(=O)Nc1ccc(Oc2ccnc(N)c2Cl)c(F)c1`, the result_ITMP was -1.97%.

With `CCC(=O)NS(=O)(=O)c1ccc(-c2c(-c3ccccc3)noc2C)cc1`, the result_ITMP is -0.09%.

Turning to `CC(C)=CCC/C(C)=C/CC/C(C)=C/C=C/C(C)=C/C(=O)O`, the result_ITMP worked out at 0.07%.
